The whole screen tested about 310,000 compounds, of which about 14,000 (4.5%) showed an effect of 50% or more. The effect is printed as a negative number. The list shows a part of the results.
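Note: peak tail current of the secondary pulse compared with the same well before compound.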

The target in this test is human ether-à-go-go-related gene (hERG) potassium channel (human, UniProt Q12809). As to the kind of experiment: primary screen, population patch clamp on CHO cells stably expressing hERG.
human ether-à-go-go-related gene (hERG) potassium channel, sequence (Q12809 whole entry, looked up): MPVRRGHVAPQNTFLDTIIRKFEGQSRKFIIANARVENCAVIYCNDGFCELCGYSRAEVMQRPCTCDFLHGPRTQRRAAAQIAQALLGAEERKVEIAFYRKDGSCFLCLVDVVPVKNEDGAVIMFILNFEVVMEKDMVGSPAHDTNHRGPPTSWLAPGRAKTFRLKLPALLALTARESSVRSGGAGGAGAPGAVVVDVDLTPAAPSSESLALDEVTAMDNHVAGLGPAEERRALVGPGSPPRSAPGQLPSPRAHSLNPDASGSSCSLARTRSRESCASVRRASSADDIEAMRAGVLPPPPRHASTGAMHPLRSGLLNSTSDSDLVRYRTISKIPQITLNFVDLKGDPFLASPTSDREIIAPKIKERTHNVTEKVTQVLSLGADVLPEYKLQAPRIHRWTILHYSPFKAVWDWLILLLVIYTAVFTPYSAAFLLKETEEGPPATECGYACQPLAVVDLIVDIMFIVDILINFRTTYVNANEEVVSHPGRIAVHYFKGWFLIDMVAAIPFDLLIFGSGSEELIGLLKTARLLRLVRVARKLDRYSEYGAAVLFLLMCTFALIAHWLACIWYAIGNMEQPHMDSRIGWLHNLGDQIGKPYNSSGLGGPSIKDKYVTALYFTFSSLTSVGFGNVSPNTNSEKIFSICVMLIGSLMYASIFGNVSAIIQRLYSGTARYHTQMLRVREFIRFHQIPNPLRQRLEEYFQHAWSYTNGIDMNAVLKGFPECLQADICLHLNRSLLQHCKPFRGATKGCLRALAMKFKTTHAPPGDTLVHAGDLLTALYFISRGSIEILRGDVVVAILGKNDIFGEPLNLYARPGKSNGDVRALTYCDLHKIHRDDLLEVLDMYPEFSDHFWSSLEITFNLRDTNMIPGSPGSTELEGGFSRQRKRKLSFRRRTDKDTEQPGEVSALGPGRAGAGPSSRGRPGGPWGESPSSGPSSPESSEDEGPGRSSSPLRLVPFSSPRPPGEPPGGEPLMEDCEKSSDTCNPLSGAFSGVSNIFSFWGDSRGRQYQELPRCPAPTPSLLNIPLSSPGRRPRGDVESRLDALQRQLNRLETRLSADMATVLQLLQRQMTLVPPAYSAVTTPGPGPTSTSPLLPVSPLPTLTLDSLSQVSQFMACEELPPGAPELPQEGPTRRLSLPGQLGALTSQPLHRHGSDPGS
Consider `CC(NC(=O)Cn1cccc1C(=O)c1ccccc1)c1ccc2c(c1)OCCO2` (stereo not shown), for which the “hERG current change (%, negative = inhibition) at 10uM” value is on record as 3.8%.

Take `CCCCNC(=O)CN1C(=O)NC(CCc2ccccc2)C1=O` (stereo not shown): the “hERG current change (%, negative = inhibition) at 10uM” value turned out to be 41.1%.

Turning to `COc1ccc2c(C)cc(SCc3c(C)noc3C)nc2c1`, the “hERG current change (%, negative = inhibition) at 10uM” value was -17%.

`CCN(CC)C(=O)c1cc2c(=O)oc3ccccc3c2s1`: the “hERG current change (%, negative = inhibition) at 10uM” value was -25%.

For `O=C(CNS(=O)(=O)c1ccc2c(c1)OCCCO2)N1CCN(c2ccc(F)cc2)CC1`, the “hERG current change (%, negative = inhibition) at 10uM” value was -15.5%.

As for `CCC(NC(=O)CCc1c(C)c2cc3c4c(oc3cc2oc1=O)CCCC4)C(=O)O` (stereo not shown), the “hERG current change (%, negative = inhibition) at 10uM” value worked out at 16.2%.

On to `COc1ccc(C2CC(=O)Nc3n[nH]c(-c4ccccc4)c32)cc1OC` (stereo not shown), for which the “hERG current change (%, negative = inhibition) at 10uM” value amounted to 14.3%.

Consider `CC1(c2ccc(Cl)cc2)NC(=O)N(CC(=O)N2CCCC2)C1=O` (stereo not shown), for which the “hERG current change (%, negative = inhibition) at 10uM” value was 5.09%.

With `COc1cccc(C(=O)Oc2ccc3ccc(O)cc3c2)c1`, the “hERG current change (%, negative = inhibition) at 10uM” value is 11.9%.

For `CC(NC(=O)c1c(Cl)cnn1C)C1CCCO1` (stereo not shown), the “hERG current change (%, negative = inhibition) at 10uM” value was 13.9%.

As for `COCCn1c(SCC(=O)N2CCOCC2)nc2ccccc2c1=O`, the “hERG current change (%, negative = inhibition) at 10uM” value is recorded as -22.3%.

Regarding `O=C(Nc1cccc(Cl)c1)N(Cc1nc2ccccc2c(=O)[nH]1)C1CCCC1`, the “hERG current change (%, negative = inhibition) at 10uM” value is reported as -0.99%.

As to `COCCC(=O)N1CCCC(CNS(=O)(=O)c2ccc(OC)cc2)C1` (stereo not shown), the “hERG current change (%, negative = inhibition) at 10uM” value was 13.7%.

With `Cc1ccc(C(=O)NCc2ccccn2)cc1Cl`, the “hERG current change (%, negative = inhibition) at 10uM” value is listed as 9.7%.

Consider `CCC(=O)N/N=C/c1ccc(OS(=O)(=O)c2ccccc2)cc1`, for which the “hERG current change (%, negative = inhibition) at 10uM” value was -17.5%.

`O=C(c1ccc(F)cc1)c1ccc(-c2ccc(F)cc2)nc1`: the “hERG current change (%, negative = inhibition) at 10uM” value is on record as 24.3%.

As to `Cc1ccc(C)c(C2C(C#N)=C(N)Oc3cc(C)oc(=O)c32)c1` (stereo not shown), the “hERG current change (%, negative = inhibition) at 10uM” value came out at 1.87%.

Consider `COCCNc1nnnc2c1sc1nc(N3CCOCC3)c3c(c12)CC(C)(C)OC3`, for which the “hERG current change (%, negative = inhibition) at 10uM” value is recorded as -7.85%.

For `Cc1cc(OCC(=O)NCC(O)c2ccccc2)c2c3c(c(=O)oc2c1)CCCC3` (stereo not shown), the “hERG current change (%, negative = inhibition) at 10uM” value is listed as 12.1%.

Consider `Cc1cc(S(=O)(=O)NCc2ccccc2)ccc1OCC(=O)NCc1ccccn1`, for which the “hERG current change (%, negative = inhibition) at 10uM” value is recorded as -39.1%.

Turning to `Cc1ccc(/C=N/Nc2cccc3cccnc23)c(O)c1`, the “hERG current change (%, negative = inhibition) at 10uM” value is given as 7.91%.

Regarding `COc1ccc(CNC(=O)Nc2ccc(C)cc2C)cc1`, the “hERG current change (%, negative = inhibition) at 10uM” value turned out to be 4.99%.

Take `O=C1N[C@@H](Cc2ccccc2)C(=O)N2CCC[C@@H]12`: the “hERG current change (%, negative = inhibition) at 10uM” value is given as 6.78%.

`COC(=O)C1Cc2c([nH]c3ccccc23)CN1` (stereo not shown): the “hERG current change (%, negative = inhibition) at 10uM” value is reported as 1.45%.

In the case of `CC(C)c1nnc(N2C(=O)c3oc4ccccc4c(=O)c3C2c2ccco2)s1` (stereo not shown), the “hERG current change (%, negative = inhibition) at 10uM” value came to 14.6%.

As for `COCC(=O)N/N=C/c1ccc(Sc2nc3ccccc3s2)o1`, the “hERG current change (%, negative = inhibition) at 10uM” value was -10.3%.

Take `Cc1ccccc1C(=O)N1CCC(C(=O)Nc2ccc(C)c(S(=O)(=O)N3CCCCC3)c2)CC1`: the “hERG current change (%, negative = inhibition) at 10uM” value is given as -10.2%.

On to `COc1ccc(NC(=O)C2CCN(S(=O)(=O)c3ccccc3)CC2)cc1`, for which the “hERG current change (%, negative = inhibition) at 10uM” value was 26.2%.

Consider `CN(Cc1ccccc1)C(=O)c1ccc2c(c1)OCCO2`, for which the “hERG current change (%, negative = inhibition) at 10uM” value came out at 5.55%.

Regarding `CC(=O)c1cc(CN2C(=O)c3ccccc3C2=O)cs1`, the “hERG current change (%, negative = inhibition) at 10uM” value is on record as -1.21%.

Turning to `Cc1cccc(C)c1NC(=O)C1(N2CCN(C(=O)c3ccco3)CC2)CCCCC1`, the “hERG current change (%, negative = inhibition) at 10uM” value is listed as -15.7%.

With `Cc1ccc(CN2C(=O)/C(=C\c3ccc(C(=O)NCc4cccnc4)cc3)Oc3ccccc32)cc1`, the “hERG current change (%, negative = inhibition) at 10uM” value came out at 12.9%.

On to `O=C(c1ccc2c(=O)n3c(nc2c1)CCC3)N1CCN(S(=O)(=O)c2cccc(F)c2)CC1`, for which the “hERG current change (%, negative = inhibition) at 10uM” value is -4.8%.

As to `COc1ccc(NS(=O)(=O)c2cc3c4c(c2)CCN4C(=O)CC3)cc1OC`, the “hERG current change (%, negative = inhibition) at 10uM” value turned out to be 8.8%.

`S=C(NCc1cccnc1)Nc1ccc(Cl)c(Cl)c1`: the “hERG current change (%, negative = inhibition) at 10uM” value is listed as -11.2%.

Consider `CCCC(C(=O)NC1=NCCS1)c1ccccc1` (stereo not shown), for which the “hERG current change (%, negative = inhibition) at 10uM” value amounted to 17%.

Regarding `CCOC(=O)C(C)Sc1nc(-c2ccco2)cc(C(F)(F)F)c1C#N` (stereo not shown), the “hERG current change (%, negative = inhibition) at 10uM” value is recorded as -2.07%.

Turning to `Cc1cc(Cl)ccc1NC(=O)c1ccc2c(c1)CCN2S(C)(=O)=O`, the “hERG current change (%, negative = inhibition) at 10uM” value came to 9.12%.

With `Cc1nnc(NC(=O)CCS(=O)(=O)c2ccccc2)s1`, the “hERG current change (%, negative = inhibition) at 10uM” value was determined as 26.5%.

As to `CCN(Cc1ccccc1)C(=O)COC(=O)c1cc(S(=O)(=O)Nc2c(C)n(C)n(-c3ccccc3)c2=O)ccc1C`, the “hERG current change (%, negative = inhibition) at 10uM” value is listed as -74.9%.

On to `CCSc1cc(C)nc2ncnn12`, for which the “hERG current change (%, negative = inhibition) at 10uM” value is -0.742%.

For the molecule `O=S1(=O)CCOC[C@H](Cc2ccccc2)N1Cc1cccc(C(F)(F)F)c1`, the “hERG current change (%, negative = inhibition) at 10uM” value turned out to be 6.22%.

In the case of `CCOC(=O)CC(c1ccc([N+](=O)[O-])cc1)n1c(C)ccc1C` (stereo not shown), the “hERG current change (%, negative = inhibition) at 10uM” value is -35.9%.

These data come from publication PMC4336329 (PLoS ONE, 2015).
